B1: TPR 5TU (parent)
chain: GGAUCUUCUCGAUCUAACAAAAAAGACAAAUCUGCCACAAAGCUUGAGAGCAUCUUCGGAUGCAGAGGCGGCAGCCUUCGGUGGCGCGAUAGCGCCAACGUUCUCAACUAUGACACGCAAAACGCGUGCUCCGUUGAAUGGAGUUUAUCAUG

Variants at the background level are over-represented here.

Variants of B1 are the subject of this data set. Nature of the data set: polymerase ribozyme fitness, log enrichment relative to wild type (log ratio); higher = more active; in vitro selection for triplet polymerase activity. The method in brief:
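After PCR construction and transcription, each subunit's mutant library from a heterodimeric triplet polymerase ribozyme was annealed with a biotinylated primer, the partner subunit and triplets. Incubation was frozen, at −7 °C, and extended constructs were gel-excised, bound to streptavidin beads and amplified by RT-PCR, in one selection round done in triplicate. Fitness is the logarithm of a genotype's enrichment divided by that of the wild type, from inverse-variance-weighted replicate averages of Illumina-sequenced inputs and outputs. The base of the logarithm is 2, and genotypes needed ≥10 input reads and ≥1 read per output.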
Turning to A60G C75U C79G A142U, the “polymerase ribozyme fitness (log ratio)” value is at most -4.2.

Regarding U61A G74U G81U C85G, the “polymerase ribozyme fitness (log ratio)” value is at most -4.2.

U61A G65A G81U C85U U102G: the “polymerase ribozyme fitness (log ratio)” value is at most -4.2.

Consider A60G C95U C96A, for which the “polymerase ribozyme fitness (log ratio)” value was -1.03.

A60U G67A C72U C87U: the “polymerase ribozyme fitness (log ratio)” value is at most -4.2.

Turning to A60C C85A G124C, the “polymerase ribozyme fitness (log ratio)” value is -2.54.

On to U61G U82G A107C A121C, for which the “polymerase ribozyme fitness (log ratio)” value was at most -4.2.

For the variant A60C A64U C75A A110C, the “polymerase ribozyme fitness (log ratio)” value is at most -4.2.

For G59C G68C C79U G94C U135A U139A G152C, the “polymerase ribozyme fitness (log ratio)” value was at most -4.2.

For A60G C85A U101G, the “polymerase ribozyme fitness (log ratio)” value is -2.94.

On to U61G A91C C93U C114A G126A U135G, for which the “polymerase ribozyme fitness (log ratio)” value was at most -4.2.

On to A60C A89C G94A, for which the “polymerase ribozyme fitness (log ratio)” value was -1.69.

For the variant A60G A110G G136A, the “polymerase ribozyme fitness (log ratio)” value is -2.56.

As to G59C C93U, the “polymerase ribozyme fitness (log ratio)” value was -1.11.

As to G59C C93G, the “polymerase ribozyme fitness (log ratio)” value is -2.98.

Take G59C C93U C95U U135G U146A: the “polymerase ribozyme fitness (log ratio)” value was at most -4.2.

For the variant U61G C85A, the “polymerase ribozyme fitness (log ratio)” value is -2.29.

With A60G A91U A113G U151C, the “polymerase ribozyme fitness (log ratio)” value is at most -4.2.

For A60C G81A C87A G133C G143A U148A, the “polymerase ribozyme fitness (log ratio)” value was at most -4.2.

For the variant A60C G65U C132A, the “polymerase ribozyme fitness (log ratio)” value was -4.19.

On to A60G G100C, for which the “polymerase ribozyme fitness (log ratio)” value is at most -4.2.

Consider A60U C96A C99U U111C G126A G128U, for which the “polymerase ribozyme fitness (log ratio)” value is at most -4.2.

For U61G G65C G74A U77G C93U A97C C99U, the “polymerase ribozyme fitness (log ratio)” value is at most -4.2.

On to G59U C87A, for which the “polymerase ribozyme fitness (log ratio)” value is at most -4.2.

For the variant G59U A97C C99G, the “polymerase ribozyme fitness (log ratio)” value is -3.18.

With U61G A89U C95A C99A U109C G136A U148G C149A, the “polymerase ribozyme fitness (log ratio)” value was at most -4.2.

Regarding G59U C69U G86A C95G A107U, the “polymerase ribozyme fitness (log ratio)” value was at most -4.2.

Turning to A60U C87G G100C G128U G143U, the “polymerase ribozyme fitness (log ratio)” value is at most -4.2.

Regarding A60C G70C C99A A121U, the “polymerase ribozyme fitness (log ratio)” value was at most -4.2.

On to G59C G83U, for which the “polymerase ribozyme fitness (log ratio)” value worked out at 0.0759.

In the case of G59C G83A, the “polymerase ribozyme fitness (log ratio)” value is -0.754.

G59C C76A C96G A107G: the “polymerase ribozyme fitness (log ratio)” value is at most -4.2.

For A60U C75U C76G C108U U144C, the “polymerase ribozyme fitness (log ratio)” value is at most -4.2.

Take U61G C116A: the “polymerase ribozyme fitness (log ratio)” value is -0.386.

Turning to U61A G68C G84A G88U A121G G124A G141U U148C, the “polymerase ribozyme fitness (log ratio)” value is at most -4.2.

For A60G G67U C93G U102C, the “polymerase ribozyme fitness (log ratio)” value is at most -4.2.

Take U61C C87A: the “polymerase ribozyme fitness (log ratio)” value is at most -4.2.

Turning to A60G G88A C108A, the “polymerase ribozyme fitness (log ratio)” value is at most -4.2.

For A60G A107U C131G, the “polymerase ribozyme fitness (log ratio)” value was at most -4.2.

Regarding G59C U90G, the “polymerase ribozyme fitness (log ratio)” value was at most -4.2.

Regarding A60U A97G C103A A115U G152A, the “polymerase ribozyme fitness (log ratio)” value is at most -4.2.

On to A60G C85A, for which the “polymerase ribozyme fitness (log ratio)” value was -0.96.

On to U61G C85A G133C, for which the “polymerase ribozyme fitness (log ratio)” value is -3.52.

Take G59U U77G C79G C95G U135C G143C: the “polymerase ribozyme fitness (log ratio)” value is at most -4.2.

Take G59U C85G C87G G141C U151A: the “polymerase ribozyme fitness (log ratio)” value was at most -4.2.

Take G59C C95A: the “polymerase ribozyme fitness (log ratio)” value is -0.188.

In the case of U61A A64C G71A G86A A91C C93U C118G, the “polymerase ribozyme fitness (log ratio)” value is at most -4.2.

U61A C76A C79G A91C: the “polymerase ribozyme fitness (log ratio)” value is at most -4.2.

Regarding A60C C93A U104A A115C G133U, the “polymerase ribozyme fitness (log ratio)” value was at most -4.2.

As to G59U U90C U101G U104C A142U, the “polymerase ribozyme fitness (log ratio)” value was at most -4.2.

As to U61A A66C G74A U90G A91G G133U A138C, the “polymerase ribozyme fitness (log ratio)” value was at most -4.2.

Regarding U61A C118A, the “polymerase ribozyme fitness (log ratio)” value is -2.

With U61G G94A A106C C116A G133C U146A, the “polymerase ribozyme fitness (log ratio)” value is at most -4.2.

With A60U C87A C95A C108A A110G, the “polymerase ribozyme fitness (log ratio)” value is -4.07.

Consider G59U U78G C93G C96U G143U U146C U151G, for which the “polymerase ribozyme fitness (log ratio)” value is at most -4.2.

A60G C79G: the “polymerase ribozyme fitness (log ratio)” value is -3.75.

For U61A C76A G94C A110C, the “polymerase ribozyme fitness (log ratio)” value was at most -4.2.

For the variant U61G G83A C103A, the “polymerase ribozyme fitness (log ratio)” value is at most -4.2.

With A60C C76G A120U, the “polymerase ribozyme fitness (log ratio)” value is at most -4.2.

As to A60G A73G C85A, the “polymerase ribozyme fitness (log ratio)” value was -2.02.

Consider A60U G86A, for which the “polymerase ribozyme fitness (log ratio)” value was -2.78.

G59U A73C U78G C87U A91U C118U A119U U130A: the “polymerase ribozyme fitness (log ratio)” value is at most -4.2.

For A60G A107U, the “polymerase ribozyme fitness (log ratio)” value is -3.1.

For the variant G59U A107C A121U, the “polymerase ribozyme fitness (log ratio)” value was -3.86.

For A60G C76A U145A U151G, the “polymerase ribozyme fitness (log ratio)” value was at most -4.2.

Take G59C U111G G126U U146C G152C: the “polymerase ribozyme fitness (log ratio)” value was at most -4.2.

For the variant G59U A91U G126C G141C C149U, the “polymerase ribozyme fitness (log ratio)” value is at most -4.2.

In the case of G59U A107U U127A, the “polymerase ribozyme fitness (log ratio)” value is at most -4.2.

For the variant G59C G133U, the “polymerase ribozyme fitness (log ratio)” value is -3.47.

Take G59C C87U G94U C96G G100U G136C G140A: the “polymerase ribozyme fitness (log ratio)” value is at most -4.2.

As for A60U C85G G92C C116U A138G A142C, the “polymerase ribozyme fitness (log ratio)” value was at most -4.2.

Take A60C A97U: the “polymerase ribozyme fitness (log ratio)” value is -1.64.

Take U61A G84U A97U U145C: the “polymerase ribozyme fitness (log ratio)” value is at most -4.2.

On to A60G G67A U78G C96G A120U G140U A147G, for which the “polymerase ribozyme fitness (log ratio)” value is at most -4.2.

In the case of U61G C87A C93U U104G A119G U139A U146A, the “polymerase ribozyme fitness (log ratio)” value was at most -4.2.

For the variant A60G A64C C99G, the “polymerase ribozyme fitness (log ratio)” value is at most -4.2.

Consider G59U G67A G92U, for which the “polymerase ribozyme fitness (log ratio)” value is -3.83.

Turning to A60C G81A G88C, the “polymerase ribozyme fitness (log ratio)” value is at most -4.2.

Turning to A60U G67A A91G A137U, the “polymerase ribozyme fitness (log ratio)” value was at most -4.2.

For U61G C87U A110U G126A G141A, the “polymerase ribozyme fitness (log ratio)” value was at most -4.2.

In the case of U61A G83C U111C, the “polymerase ribozyme fitness (log ratio)” value was at most -4.2.

With A60G C69A G88A C95G U101A A106C A107G A119C U148A, the “polymerase ribozyme fitness (log ratio)” value is at most -4.2.

With U61A G70C G80C C108U C118G, the “polymerase ribozyme fitness (log ratio)” value is at most -4.2.

The values are drawn from the RNAGym collection of RNA variant scans (doi:10.1073/pnas.2313332121).
